Hit rate of the full screen: of about 50,000 compounds, about 800 (1.6%) showed an effect of 50% or more. Some of the results follow.
biological target: Bcl-2-like protein 10 (Homo sapiens) (UniProt Q9HD36); test: Phenotype converters, Bcl-B/TR3 peptide binding displacement, primary biochemical FP (AID 1240); settings: GST-Bcl-B / FITC-TR3 peptide fluorescence polarization; stronger effect = higher value; compound at 3.75 mg/L;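 note: 0% = Bcl-B with tracer peptide and DMSO and 100% = tracer peptide lacking Bcl-B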
Sequence of UniProt Q9HD36 (Q9HD36 whole entry, looked up): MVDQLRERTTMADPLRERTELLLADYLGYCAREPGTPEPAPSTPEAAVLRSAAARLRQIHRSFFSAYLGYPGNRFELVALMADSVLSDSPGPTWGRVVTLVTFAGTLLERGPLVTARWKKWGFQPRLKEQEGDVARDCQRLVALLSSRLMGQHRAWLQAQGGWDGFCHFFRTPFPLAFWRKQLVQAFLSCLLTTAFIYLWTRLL

SMILES | displacement
COc1ccc(C(NC(C)=O)c2c(OC(C)=O)ccc3ccccc23)cc1OC (stereo unspecified) | -18.9%
CC(C)(C)c1ccc(OCC(O)CS(=O)(=O)Cc2ccccc2)cc1 (stereo unspecified) | -16.7%
O=C1NC(=O)N(c2ccccc2)C(=O)/C1=C\C=C\c1cccc([N+](=O)[O-])c1 | 9.8%
CC1CCc2c(sc(NC(=O)CCN3C(=O)c4ccccc4C3=O)c2C(N)=O)C1 (stereo unspecified) | 16%
Cc1cc2ncn(C(=O)c3cc(-c4ccccc4)nc4ccccc34)c2cc1C | -8.9%
COC(=O)n1ccc(C(=O)Nc2ccc(C)cc2C)n1 | -5.2%
O=C(Nc1ccc(S(=O)(=O)N2CCCCCC2)cc1)c1cccs1 | -1.4%
Cc1ccc2nc(/N=C(/N)NC(=O)Cc3ccc(Cl)cc3)nc(C)c2c1 | -2.5%
COc1ccc(OCCCCOc2ccccc2)cc1 | 8.4%
COC(=O)c1ccccc1NC(=O)CN(c1ccc(OC)cc1OC)S(=O)(=O)c1ccc(C)cc1 | 0.1%
Cc1ccc(-c2csc(NC(=O)c3ccc4c(c3)OCO4)n2)cc1 | 5.2%
O=[N+]([O-])c1ccc(N2CCOCC2)nc1 | 4.2%
Cc1ccc(O)c(NC(=O)c2cnn3c(C(F)(F)F)cc(-c4cccs4)nc23)c1 | -7.5%
CC(=O)NS(=O)(=O)c1ccc(NC(=O)C(C)(C)C)cc1 | 1.4%
Cc1ccccc1NC(=O)C(=O)NCCc1ccccc1 | 2.8%
CCc1ccc(NC(=O)c2ccc(-c3ccccc3)cc2)cc1 | 13.5%
O=C(Cn1nnc(-c2ccccc2)n1)N/N=C/c1c(F)cccc1Cl | -9.6%
O=C(CN1CCCCC1)n1c2c(c3ccccc31)CCCC2 | 5.1%
CC(C(=O)N1CCOCC1)N1C(=O)c2cccc3cccc(c23)C1=O (stereo unspecified) | 10.5%
Cc1c(C#N)c(N=CN(C)C)c(C#N)n1-c1ccccc1 | -3.3%
Oc1ccc(C=NCC2COc3ccccc3O2)cc1 (stereo unspecified) | 13.1%
COc1cc(/C=N\Nc2nc3ccccc3[nH]2)cc(OC)c1OC | 1.2%
CCC1=NN2C(=N)/C(=C/c3ccc(-c4ccc([N+](=O)[O-])cc4Cl)o3)C(=O)N=C2S1 | 15.1%

SMILES | displacement
O=C1CC(c2ccccc2Cl)CC2=C1C(c1ccsc1)Nc1ccccc1N2 (stereo unspecified) | 8.8%
Cn1c(=O)n(Cc2ccc(Cl)cc2)c2ccccc21 | -2.6%
C=CCOC(=O)C1=C(C)NC2=C(C(=O)CC(C)(C)C2)C1c1cccc(Cl)c1Cl (stereo unspecified) | 2.7%
O=C(O)CCN1C(=O)c2ccc(C(=O)c3cccc([N+](=O)[O-])c3)cc2C1=O | 8.8%
C=CCC1(C#N)C(=S)NC2=C(C(=O)CC(C)(C)C2)C1c1ccc(Br)cc1 (stereo unspecified) | 8.2%
O=C(COc1ccccc1[N+](=O)[O-])Nc1ccc(Cl)cn1 | -2.4%
COc1ccc(C(=O)Nc2nc3ccc(Br)cc3s2)cc1 | 1.9%
COc1cc(/C=N/N2C(=O)CSC2=S)ccc1OCCOc1cc(C)ccc1C(C)C | -1.1%
O=C(Cc1ccccc1)Nc1ccc(SC(F)(F)C(F)(F)C(F)(F)F)cc1 | -17.7%
NS(=O)(=O)c1ccc(CCNC(=O)c2cccs2)cc1 | 5.4%
O=C(Nc1cccc(Cl)c1)OCc1ccccc1F | -6.6%
Cc1c(NC(=O)CN(c2ccc(Oc3ccccc3)cc2)S(C)(=O)=O)c(=O)n(-c2ccccc2)n1C | 11%
NC(N)=NS(=O)(=O)c1ccc(NC(=O)c2cccc([N+](=O)[O-])c2)cc1 | 6.7%
C=CCN1C(=O)/C(=C/c2ccc(N(C)C)cc2)C(=O)NC1=S | -3.8%
COc1cc(C(=O)NC(NC(=S)Nc2cccc([N+](=O)[O-])c2)C(Cl)(Cl)Cl)cc(OC)c1OC (stereo unspecified) | 1.6%
Cc1ccc(N2C(=O)c3ccc(C(=O)Nc4cccc(C)c4C)cc3C2=O)c(C)c1 | 6.6%
O=c1c2c3c(sc2ncn1/N=C/c1ccco1)CCCC3 | 10%
NC(=O)CCn1c(=S)n(CCC(N)=O)c2ccccc21 | -2.4%
COC(=O)C1CC(C)=CC(C)C1C(=O)O (stereo unspecified) | 1.4%
CC1(C)Cc2c(sc(NC(=O)c3ccc(Cl)cc3)c2C#N)CO1 | -5.4%
C=CCc1ccccc1OCCOc1ccccc1/C=C1/SC(=S)N(C)C1=O | 0.3%
CC1=NOC(=O)/C1=C\c1ccc(OCc2ccc(Cl)cc2)cc1 | 8.7%
O=C(/C=C\c1ccc(-c2ccc(Br)cc2)o1)N1CCOCC1 | 1.4%

SMILES | displacement
COc1cc(NC(C)=O)c(Cl)cc1NC(=O)c1ccccc1 | 0.1%
CC1=NN(C(N)=S)C2(O)CC3C(C12)C3(C)C (stereo unspecified) | 7.5%
COCCN1C(=O)C(=O)/C(=C(/O)c2ccccc2)C1c1ccc(C)cc1 (stereo unspecified) | -4.9%
O=C(COc1ccccc1[N+](=O)[O-])Nc1ccc(Cl)c(-c2nc3ccccc3s2)c1 | -2.6%
CCOc1ccc(CN2CCN(C(=O)c3cccs3)CC2)cc1 | -12.3%
COc1ccc(OC)c(N2C(=O)C3C4C=CC(C4)C3C2=O)c1 (stereo unspecified) | -9%
O=C(O)c1ccc(C(=O)Nc2ccccc2Br)c(C(=O)O)c1 | 6.5%
Cc1ccc(N2CC(C(=O)Nc3ccccc3C)CC2=O)cc1 (stereo unspecified) | 9.9%
C=CCn1c(/C=C/c2ccccc2)nc2ccccc21 | -4.9%
CC(C)c1ccc(/C=C(\C(=O)c2ccccc2Cl)c2nc3ccccc3o2)cc1 | 6.4%
O=C1S/C(=C/c2ccc(F)cc2)C(=O)N1CNc1ccc(I)cc1 | 11.9%
CCOC(=O)C1=C(O)/C(=C/c2ccc(Cl)cc2)SC1=Nc1ccc(OC)cc1 | 3.1%
O=C/C(=C\Nc1ccc(Cl)cn1)c1nc2cc(Cl)ccc2o1 | -40.6%
O=C(CSc1n[nH]c(-c2ccccc2)n1)Nc1ccccn1 | -5.3%
O=c1[nH]c(/C=C/c2ccco2)nc2ccccc12 | 37.8%
Cc1cc([N+](=O)[O-])ccc1N=Cc1ccc([N+](=O)[O-])s1 | 6.9%
CN(c1ccc(C(=O)O)cc1)S(=O)(=O)c1ccccc1 | 10.9%
O=C1/C(=C/c2cccc([N+](=O)[O-])c2)SC(=S)N1c1ccc(F)cc1 | 14.2%
COc1ccc(CNC(=O)c2cc(OC)cc(OC)c2)cc1 | 8.7%
Cc1ccc(C(=O)NCC(=O)c2ccccc2)cc1 | 1.2%
COc1ccc(OC)c(S(=O)(=O)N2CCN(C)CC2)c1 | -7.7%
O=[N+]([O-])c1ccc(CP(=O)(c2ccccc2)c2ccccc2)cc1 | -0.7%
CCOc1ccc(NC2=C(Cl)C(=O)N(c3cccc(Cl)c3Cl)C2=O)cc1 | 16.3%

SMILES | displacement
COc1ccc(NC(=O)CN2C(=O)c3ccccc3C2=O)cc1O | -3.4%
CSc1ccc(CN2CCN(Cc3ccc([N+](=O)[O-])cc3)CC2)cc1 | 2.5%
CCC(C(=O)Nc1cccc(C(C)=O)c1)c1ccccc1 (stereo unspecified) | 6.9%
CCOc1cc(/C=N/Nc2nncn2N)cc(I)c1O | 1.3%
CCOC(=O)c1c(NC(=O)C2C3CCC(C3)C2C(=O)O)sc2c1CCC(CC)C2 (stereo unspecified) | -7.9%
Cc1ccc(-n2nc3cc(C)c(NC(=O)c4ccco4)cc3n2)cc1 | 107%
Cc1cccc(/C=N/NC(=O)c2ccc(-c3ccccc3)cc2)c1 | -6%
O=S(=O)(c1cc(Cl)ccc1Cl)N1CCN(c2ccc(F)cc2)CC1 | -7.1%
CCN1CCN(Cc2c(C)[nH]c3c(ccc4ccccc43)c2=O)CC1 | 8.8%
O=C(COc1ccccc1Cl)Nc1nccs1 | 0%
CN1CCN(Cc2c(O)ccc3cc(-c4ccccn4)c(=O)oc23)CC1 | 25.9%
CCOC(=O)C1=C(C)N=c2s/c(=C\c3cc(Br)ccc3O)c(=O)n2C1c1ccc(OC)cc1 (stereo unspecified) | 3.5%
COc1ccc(CNCC(CO)C2(c3ccccc3)CCOC(C)(C)C2)cc1 (stereo unspecified) | 8%
CSc1nsc(SC)c1NC(=O)OCCc1ccccn1 | 0.4%
CCOc1ccc(/C=C2/NC(=S)NC2=O)cc1 | 10.8%
COC(=O)c1cccc(NC(=O)COc2ccc(Br)cc2)c1 | 13.5%
CCOc1ccc(C(=O)Nc2ccc(NC(=O)c3cccc(C)c3)cc2)cc1 | -6.9%
CC1(C)Nc2ccccc2N(Cc2ccccc2)C1=O | 10%
Cc1ccc(/C=N\N2CCN(c3ccccc3)CC2)cc1 | -3.9%
COc1ccccc1N(CC(=O)Nc1cccc(Br)c1)S(=O)(=O)c1ccccc1 | 1.1%
COc1ccc(OCCCCCNCCO)cc1 | 5.2%
COc1ccc(N(CC(=O)NCc2ccc(C)cc2)S(=O)(=O)c2ccc(OC)c(OC)c2)cc1 | -4.7%
Cc1ccccc1OCC(=O)Nc1ccc(NC(=O)c2ccco2)cc1 | 14.7%

SMILES | displacement
COc1ccc(C(=O)Nc2ccncc2)cc1Br | 13.6%
CCNC(=S)N(Cc1ccccc1)/N=C\c1ccccc1 | -2.8%
COc1ccc(CNC(=O)C2c3ccccc3Oc3ccccc32)cc1 | 11.4%
Cc1ccccc1Nc1nc(-c2cc3cc(Br)ccc3oc2=O)cs1 | 3.3%
CCCCCCOc1ccc(/C=C2/C(=O)ON=C2c2ccccc2)cc1 | 2.7%
Cc1ccc(OCC(=O)Nc2c(C)cccc2C(C)C)c(C(C)(C)C)c1 | 15.4%
O=C(Nc1ccccc1C(=O)N1CCN(Cc2ccccc2)CC1)c1ccco1 | 3%
O=C(/C=C/c1ccc(Cl)cc1Cl)NCc1ccncc1 | -4.4%
COc1ccc(N(CC(=O)Nc2ccc(Br)cc2)S(=O)(=O)c2ccccc2)cc1Cl | 11.2%
CCn1cc(/C=C2\C(=O)NC(=O)N(c3ccccc3)C2=O)c2ccccc21 | 25.2%
Cc1ccc(S(N)(=O)=O)cc1NC(=O)c1ccc(F)cc1 | 10%
Cc1ccccc1NC(=O)c1ccc(-c2ccccc2)cc1 | 14.5%
CC(C)(C)c1ccc(C(=O)NNC(=O)c2ccc([N+](=O)[O-])cc2[N+](=O)[O-])cc1 | -8.3%
COc1ccc(C)cc1NC(=O)CCC1CCCC1 | -4.4%
CCOC(=O)CNc1cccc(NCC(=O)OCC)c1 | 44.2%
O=C(Nc1ccc(Cl)cc1Cl)C1C2C3CCC(C3)C12 (stereo unspecified) | -6%
Cc1c(Cl)cccc1-c1ccc(/C=C/c2cc(C(F)(F)F)[nH]c(=O)n2)o1 | -60.9%
CC(C)CNC(=O)CC(=O)N/N=C/c1ccc(C(=O)O)cc1 | -6%
COc1ccc(N2C(=O)C(Cl)=C(N3CCN(C)CC3)C2=O)cc1 | 12.3%

Reference: PubChem BioAssay AID1240 (Sanford-Burnham Center for Chemical Genomics, 2008)
